Assay results as given in PubChem BioAssay AID686970 (National Center for Advancing Translational Sciences (NCATS), 2013).
Screen size: about 360,000 compounds; about 6,000 (1.7%) were called active. The inconclusive results got no clear call from the source; some entries with a clear call stand among them for comparison. Calls come from the whole dose curve; as a rule, active = well fitted cell-killing curve with a large enough effect; inconclusive = small, poorly fitted or top-dose-only effect, or effect the other way; inactive = flat fitted curve, though single readings scatter. No potency is given beside an inconclusive call; the fits are too rough.

assay: qHTS for induction of synthetic lethality in tumor cells producing 2HG: qHTS for the HT-1080-NT fibrosarcoma cell line; details: HT-1080-NT fibrosarcoma viability, CellTiter-Glo ATP luminescence, 48 h; activity, negative = less viability: at 46.1 µM (top of the series) unless noted;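 note: NT is the 2HG producing partner of a matched IDH1 knockdown line; nearly all actives have a fitted effect of over 55% in size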;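 for activity, negative = less viability: 0% = DMSO-treated cells and -100% = media-only wells without cells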
Method in brief: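 HT-1080-NT fibrosarcoma cells (2HG-overproducing), 750 cells/well in RPMI with 5% FBS, dosed after 2 h and incubated 48 h at 37C. CellTiter-Glo luminescence normalized to DMSO and no-cell wells; concentration-response curves fitted and classed.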
Potency is the fitted concentration of half-maximal effect; tags give direction and shape of the fitted curve.

**Q.** Which Potency does the source give for `COC(=O)Nc1nc2ccc(SC(C)C)cc2[nH]1` here?
**A.** inconclusive [cytotoxic, full curve]

**Q.** Which “activity, negative = less viability” value does the source give for `COc1cc2c(cc1OC)CN(CC(=O)Nc1ccc(C#N)cc1)CC2` here?
**A.** inactive: -13.7%

**Q.** For `Cc1ccc(NC(=O)c2ccc(OCc3c(C)noc3C)cc2)cc1C`, which Potency is on record?
**A.** inconclusive [cytotoxic, single point]

**Q.** For `CC(C)C(=O)Nc1cccc2nsnc12`, which Potency is on record?
**A.** inconclusive [cytotoxic, single point]

**Q.** For `CCOc1ccccc1NC(=O)Cn1c(=O)oc2ccccc21`, which “activity, negative = less viability” value is on record?
**A.** inactive: 15.6%

**Q.** For `CCN1CCCC1CNC(=O)c1ccc2c(c1)NC(=O)/C(=C\c1ccc(C)cc1)S2` (stereo unspecified), which Potency is on record?
**A.** inconclusive [cytotoxic, single point]

**Q.** For `CCn1cnc2cc(NC(=O)COc3ccc(C)cc3)ccc21`, which Potency is on record?
**A.** inconclusive [cytotoxic, single point]

**Q.** Which “activity, negative = less viability” value does the source give for `CC1CCC(C(=O)NC(C(=O)NCc2cccnc2)C(C)C)CC1` (stereo unspecified) here?
**A.** inactive: 0.655%

**Q.** Which Potency does the source give for `CC(=O)Oc1c(I)cc(I)cc1C(=O)Nc1ccc(Cl)cc1` here?
**A.** active: 20.6 µM

**Q.** With `Cn1c(=O)cc(OCCCC(=O)N2CCN(c3ccccc3)CC2)c2ccccc21` as the compound, how does the “activity, negative = less viability” value read?
**A.** inactive: -5.03%

**Q.** For `CCOc1ccc(N/C(N)=N/c2nc(CSc3nnc(C)s3)cc(=O)[nH]2)cc1`, which Potency is on record?
**A.** active: 0.206 µM

**Q.** With `CC(C)(C)C1CCc2c(sc(NC(=O)c3cccs3)c2C(N)=O)C1` (stereo unspecified) as the compound, how does the “activity, negative = less viability” value read?
**A.** inactive: -7.93%

**Q.** With `Oc1cccc(/C=N/NC(=S)Nc2cccnc2)c1O` as the compound, how does the Potency read?
**A.** inconclusive [cytotoxic, full curve]

**Q.** For `COc1cccc2cc(C(=O)N3CCC(C)CC3)c(=O)oc12`, which Potency is on record?
**A.** inconclusive [rising, single point]

**Q.** With `CCCn1c2ccc(C)cc2c2nnc(SCCN3CCOCC3)nc21` as the compound, how does the Potency read?
**A.** inconclusive [cytotoxic, full curve]

**Q.** For `Cc1ccc(Cl)c(Nc2ccccc2C(=O)O)c1Cl`, which Potency is on record?
**A.** inconclusive [cytotoxic, single point]

**Q.** For `O=C(NC(=O)N1CCN(c2ccc(F)cc2)CC1)c1ccccc1`, which Potency is on record?
**A.** inconclusive [cytotoxic, partial curve]

**Q.** For `COC(=O)c1sc2nc3c(cc2c1N)CCCC3`, which activity, negative = less viability is on record?
**A.** inconclusive: 17.3%

**Q.** For `CC1(C(=O)NS(=O)(=O)c2cccc(Cl)c2)CCN1C(=O)C/C=C/c1ccccc1` (stereo unspecified), which Potency is on record?
**A.** inconclusive [cytotoxic, single point]

**Q.** Which “activity, negative = less viability” value does the source give for `COc1cccc(CN(C(=O)Cc2c[nH]c3ccccc23)C(C(=O)NC2CCCCC2)c2ccc(C)o2)c1` (stereo unspecified) here?
**A.** inactive: -21.4%

**Q.** Which “activity, negative = less viability” value does the source give for `Cn1ccnc1SCC(=O)Nc1cccc(C(F)(F)F)c1` here?
**A.** inactive: -7.37%

**Q.** With `Cc1cc(C)c2nc(-c3ccccc3)ccc2c1` as the compound, how does the activity, negative = less viability read?
**A.** inconclusive: 30.6%

**Q.** Which Potency does the source give for `CCN1/C(=C/C=C/c2oc3ccc(-c4ccccc4)cc3[n+]2CC)Oc2ccc(-c3ccccc3)cc21` here?
**A.** active: 2.59 µM

**Q.** Which Potency does the source give for `COc1ccc(-c2cc(NC=O)c3ncc(-c4ccc(OC)c(OC)c4)n3c2)c(OC)c1` here?
**A.** active: 0.0073 µM

**Q.** Which Potency does the source give for `COc1cccc(/C=N/NC(=O)c2c(C)nc3ccc(Br)cn23)c1O` here?
**A.** inconclusive [cytotoxic, full curve]

**Q.** Which Potency does the source give for `COC(=O)c1c(NC(=O)/C=C/C(=O)O)sc(C)c1-c1ccc(C(C)C)cc1` here?
**A.** inconclusive [cytotoxic, single point]

**Q.** For `Cc1ccc(C(=O)N2CCCCC2)cc1NC1=C(Cl)C(=O)N(Cc2ccccc2)C1=O`, which Potency is on record?
**A.** inconclusive [cytotoxic, single point]

**Q.** Which Potency does the source give for `CC(C)(C)c1ccc(/C=C/C(=O)NC2=NCCS2)cc1` here?
**A.** inconclusive [cytotoxic, single point]

**Q.** For `Cc1ccc(C(=O)Nc2ccc3c(c2)OCO3)cc1`, which Potency is on record?
**A.** inconclusive [cytotoxic, single point]

**Q.** With `CSCCC(NC(=O)c1ccccc1Cl)C(=O)Nc1cccc(S(=O)(=O)N2CCCC2)c1` (stereo unspecified) as the compound, how does the “activity, negative = less viability” value read?
**A.** inactive: 8.88%

**Q.** For `CN(CC(=O)Nc1cc(Cl)cc(Cl)c1)Cc1cccs1`, which Potency is on record?
**A.** inconclusive [cytotoxic, single point]

**Q.** Which Potency does the source give for `CCc1cc(C)cc(OCCOc2ccccc2/C=N/NC(C)=O)c1` here?
**A.** inconclusive [cytotoxic, single point]

**Q.** Which Potency does the source give for `COc1ccc(-c2nc3c4ccccc4ccn3c2Cc2cccc(F)c2)cc1OC` here?
**A.** active: 23.1 µM

**Q.** For `CCOc1ccc(NCCC(=O)c2ccc3c(c2)OCO3)cc1`, which Potency is on record?
**A.** inconclusive [cytotoxic, single point]

**Q.** With `C=CCN1C(=O)NC2(CCCCC2)C1=O` as the compound, how does the Potency read?
**A.** inconclusive [rising, partial curve]

**Q.** Which Potency does the source give for `COc1ccccc1-c1ccc2c(c1)C(C)(Cc1ccc(F)c(Cl)c1)C(=O)N2` (stereo unspecified) here?
**A.** inconclusive [cytotoxic, single point]

**Q.** With `COC(=O)c1sc(S(=O)(=O)NCCC(=O)O)c(C(=O)OC)c1C` as the compound, how does the “activity, negative = less viability” value read?
**A.** inactive: 11.8%

**Q.** For `CCOC(=O)C1(CCOc2ccccc2)CCN(Cc2ccc3c(c2)OCCO3)CC1`, which Potency is on record?
**A.** active: 18.4 µM

**Q.** For `COC(=O)c1c(C)nc2c(c(SC)nn2-c2ccccc2)c1N`, which Potency is on record?
**A.** inconclusive [rising, single point]

**Q.** With `CC(=O)N1CCC(C(=O)Nc2ccc3c(c2)CCC3)CC1` as the compound, how does the Potency read?
**A.** inconclusive [rising, single point]

**Q.** With `CC(=O)c1cccc(NC(=O)C2Cc3c(-c4cccc(C(N)=O)c4)ccnc3O2)c1` (stereo unspecified) as the compound, how does the activity, negative = less viability read?
**A.** inconclusive: -30.7% [cytotoxic]

**Q.** For `CC(C(=O)O)c1ccc(N2Cc3ccccc3C2=O)cc1` (stereo unspecified), which Potency is on record?
**A.** inconclusive [cytotoxic, full curve, poor fit]

**Q.** Which Potency does the source give for `Cc1ccc(C(=O)N/C(=C\c2ccccc2)C(=O)NCc2ccncc2)cc1` here?
**A.** inconclusive [rising, single point]

**Q.** With `CC1(C)CC(=O)C2=C(C1)N1C(=C(C#N)C2c2ccc(Cl)cc2)N=C(N)c2ccccc21` (stereo unspecified) as the compound, how does the Potency read?
**A.** inconclusive [cytotoxic, single point]

**Q.** Which Potency does the source give for `COc1ccc(C(=O)N2CCC(C)(C(=O)NS(=O)(=O)C3CC3)C2)cc1` (stereo unspecified) here?
**A.** inconclusive [rising, partial curve]

**Q.** For `COc1cccc(-c2cnc3c(NC=O)cc(-c4ccc(N5CCN(C)CC5)cc4)cn23)c1`, which Potency is on record?
**A.** inconclusive [cytotoxic, single point]
